Measurements taken from PMC4336329 (PLoS ONE, 2015).
Hit rate of the full screen: of about 310,000 compounds, about 14,000 (4.5%) showed an effect of 50% or more. Effects have a minus sign here. Some of the results follow.

Target: human ether-à-go-go-related gene (hERG) potassium channel (human, UniProt Q12809)
Test: primary screen, population patch clamp on CHO cells stably expressing hERG
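Also: peak tail current of the secondary pulse compared with the same well before compound.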

Chain of human ether-à-go-go-related gene (hERG) potassium channel (Q12809 whole entry, looked up): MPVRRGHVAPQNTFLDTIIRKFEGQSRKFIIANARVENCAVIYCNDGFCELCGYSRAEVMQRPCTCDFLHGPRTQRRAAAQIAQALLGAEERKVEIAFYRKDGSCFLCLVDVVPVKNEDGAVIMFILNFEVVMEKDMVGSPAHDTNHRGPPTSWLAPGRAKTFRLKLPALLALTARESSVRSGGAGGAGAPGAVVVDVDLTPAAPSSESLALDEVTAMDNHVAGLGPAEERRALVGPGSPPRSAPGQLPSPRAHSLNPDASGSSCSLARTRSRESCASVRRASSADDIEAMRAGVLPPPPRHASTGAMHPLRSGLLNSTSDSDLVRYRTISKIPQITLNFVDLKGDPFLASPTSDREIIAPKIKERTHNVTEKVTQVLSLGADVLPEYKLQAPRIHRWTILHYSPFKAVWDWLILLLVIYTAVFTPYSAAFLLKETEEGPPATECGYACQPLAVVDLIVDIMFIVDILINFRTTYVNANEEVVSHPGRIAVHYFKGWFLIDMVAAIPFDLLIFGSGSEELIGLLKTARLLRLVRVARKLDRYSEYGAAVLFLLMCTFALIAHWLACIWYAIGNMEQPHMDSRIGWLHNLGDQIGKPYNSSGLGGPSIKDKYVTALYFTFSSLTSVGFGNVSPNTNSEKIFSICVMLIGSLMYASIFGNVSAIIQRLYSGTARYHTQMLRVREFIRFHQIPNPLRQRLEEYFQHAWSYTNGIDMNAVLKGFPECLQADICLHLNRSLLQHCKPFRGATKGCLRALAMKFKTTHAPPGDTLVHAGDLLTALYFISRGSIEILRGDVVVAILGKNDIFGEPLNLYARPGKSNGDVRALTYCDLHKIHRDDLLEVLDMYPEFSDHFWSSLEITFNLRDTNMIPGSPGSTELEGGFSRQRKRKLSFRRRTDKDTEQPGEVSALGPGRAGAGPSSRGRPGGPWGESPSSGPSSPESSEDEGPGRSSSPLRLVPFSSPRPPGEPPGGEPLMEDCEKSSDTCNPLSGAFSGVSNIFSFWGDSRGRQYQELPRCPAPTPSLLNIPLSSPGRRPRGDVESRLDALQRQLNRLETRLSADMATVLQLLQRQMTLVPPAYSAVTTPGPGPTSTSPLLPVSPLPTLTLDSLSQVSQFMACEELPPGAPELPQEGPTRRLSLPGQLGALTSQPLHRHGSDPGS

Row | SMILES | hERG current change (%, negative = inhibition) at 10uM
1 | O=C(c1ccc(Br)o1)N1CCN=C1SCc1cccnc1 | -11.9%
2 | O=C(Nc1ccc(F)cc1)Nc1ccccc1N1CCCCC1 | 5.43%
3 | CC(=O)CC(=O)Nc1nc(C)cc(C)n1 | 13.4%
4 | CC(C)CNC(=O)COCc1cc(-c2ccc3c(c2)OCO3)on1 | -2.23%
5 | O=C(O)C1C2C=CC(O2)C1C(=O)Nc1cccc(C(F)(F)F)c1 (stereo not drawn) | 30.9%
6 | O=C(NCCCNC(=O)c1ccccc1Cl)c1cnccn1 | 16.8%
7 | Cc1ccc([N+](=O)[O-])cc1N/C=C1\CCCCC1=O | 6.81%
8 | O=C(N=C1SC2CS(=O)(=O)CC2N1c1cccc(Cl)c1Cl)C1CC1 (stereo not drawn) | -1.32%
9 | CCCc1nnc(NC(=O)CCC(=O)NC2CCCc3ccccc32)s1 (stereo not drawn) | 5.8%
10 | O=C(CSc1nnc(N2CCCC2)n1-c1ccccc1Cl)N1CCN(c2ccccn2)CC1 | -24.9%
11 | O=[N+]([O-])/C=C/c1cc2ccccc2[nH]1 | 21.4%
12 | O=[N+]([O-])c1ccccc1SNc1ccc(Br)cn1 | 14.2%
13 | O=[N+]([O-])c1ccc(O)c(C2=NNC(c3ccccc3F)C2)c1 (stereo not drawn) | -23.2%
14 | Cc1onc(-c2ccccc2)c1C(=O)c1c[nH]c(C(=O)NCc2ccccn2)c1 | 6.77%
15 | NS(=O)(=O)c1ccc(NS(=O)(=O)c2ccc(NC(=O)C3CC3)cc2)cc1 | 22.6%
16 | Cc1ccccc1N=C1c2cc([N+](=O)[O-])ccc2-c2ncccc21 | -11.1%
17 | CCOc1nc(-c2ccc(Cl)cc2)nc2ccccc12 | -5.18%
18 | O=C(NCC1CCCO1)c1csc(Nc2cccc3ccccc23)n1 (stereo not drawn) | -34.8%
19 | CCOc1[nH]n(-c2ccccc2)c(=O)c1C=Nc1ccc(F)cc1F | 14.4%

Row | SMILES | hERG current change (%, negative = inhibition) at 10uM
20 | c1ccc(COc2ccccc2CNc2nn[nH]n2)cc1 | 13.1%
21 | COc1cc(C)c(Br)cc1S(=O)(=O)NCCN1CCOCC1 | 12.5%
22 | COc1cc(C(C)=O)ccc1Oc1ncnc2c1cnn2-c1ccccc1 | 1.49%
23 | O=C(c1ccc(OCC[NH+]2CCCCC2)cc1)c1c(-c2ccc(O)cc2)sc2cc(O)ccc12.[Cl-] | -1.49%
24 | COc1ccc2nc3oc(C(=O)NC4CCN(Cc5ccccc5)CC4)cc3cc2c1 | -67.1%
25 | COc1ccc(C)cc1S(=O)(=O)Nc1cccnc1 | -10.6%
26 | CCOc1ccc(NC(=O)CN(C)C(=O)CSCc2cccc(C)c2)cc1OCC | 2.86%
27 | Cc1cc(C)c(NC(=O)CCCCCNC2CCCCC2)c(C)c1.Cl | 2.66%
28 | Cc1cc(NC(=O)CSCC(=O)OCC(=O)Nc2cc(C)c(C)cc2[N+](=O)[O-])no1 | 5.52%
29 | Cc1cc(NC(=O)C(C)(C)C)no1 | 4.01%
30 | COc1ccc(OC)c(-n2c(CNC3CCN(Cc4ccccc4)CC3)nc3ccccc3c2=O)c1 | -76.6%
31 | COc1ccc(NC(=O)c2ccc(F)c(F)c2)c2ccccc12 | 25.9%
32 | CC12CN3CCN(CC(C3)/C1=N\N=C1/C3CN4CCN(C3)CC1(C)C4)C2 | -3.37%
33 | O=C(N/N=C/C=C\c1ccccc1[N+](=O)[O-])c1ccccn1 | -18.1%
34 | CC1=NN(C(N)=S)C(=O)C1N=Nc1ccccc1Cl (stereo not drawn) | 20.2%
35 | CCNc1cc(=O)n(C)c(=O)n1C | -0.391%
36 | CCO[C@H]1OC(C(=O)Nc2ccccc2)=C[C@@H](C)[C@@H]1CCCO | 14.1%
37 | CN(C)S(=O)(=O)c1ccc(F)c(C(=O)Nc2ccccc2C(=O)NC2CC2)c1 | -38.7%
38 | Cc1ccc(C(=O)NCc2nc3ccccc3[nH]2)o1 | 9.61%

Row | SMILES | hERG current change (%, negative = inhibition) at 10uM
39 | CC(=O)c1cc2c(cc1NC(=O)CN1CCN(c3ccc(F)cc3)CC1)OCO2 | 15.2%
40 | COC(=O)N1C(=O)[C@](Cc2ccccc2)(c2ccccc2)N1C(=O)OC | 10.8%
41 | CC(/C=N/NC(=O)CSc1nnc(SCc2ccccc2)s1)=C\c1ccco1 | -13%
42 | O=C(O)CCC(=O)Nc1ccc(Cc2ccc(NC(=O)CCC(=O)O)cc2)cc1 | 11.4%
43 | CC(C)(CO)N1CCN(C(=S)Nc2ccccc2)CC1 | 5.01%
44 | COC(=O)C1C(O)=C(C(C)=Nc2cccc3ccccc23)C(=O)CC1(C)C (stereo not drawn) | 4.51%
45 | Cc1ccnc(NC(=O)CCC(=O)N(CC(=O)NC2CCCCC2)Cc2cccs2)c1 | -11.8%
46 | Cc1ccc2[nH]c3c(c2c1)CN(C(=O)CN1CCN(Cc2ccc4c(c2)OCO4)CC1)CC3 | -54.8%
47 | O=C1C=C(O)CC(c2ccc(Cl)cc2)C1 (stereo not drawn) | 10.8%
48 | COc1cccc(/C=C/c2nc(C#N)c(NCC(C)C)o2)c1 | 9.83%
49 | Cc1cc(NC(=O)C2CC(c3ccccc3Cl)=NO2)no1 (stereo not drawn) | 9.72%
50 | COc1cccc(C(=O)NCCN2CCOCC2)c1 | 7.25%
51 | CCOc1ccc(S(=O)(=O)Nc2cc(S(=O)(=O)N(CC)CC)ccc2N2CCCC2)cc1 | 10.1%
52 | CCCCN(C(=O)C1CC(=O)N(CCc2ccc(OC)c(OC)c2)C1)c1c(N)n(CCCC)c(=O)[nH]c1=O (stereo not drawn) | 6.61%
53 | COc1ccc(Nc2nc(NCc3ccco3)nc(N/N=C/c3ccccc3F)n2)cc1 | -12.3%
54 | O=C(N/N=C/c1cc(Br)c(O)c(Br)c1)c1cccnc1 | 10.8%
55 | COc1cc(/C=N/n2c(C3CCCCC3)n[nH]c2=S)cc(Br)c1O | 9.84%
56 | O=C(COC(=O)CCC(=O)c1ccc(F)cc1)NCc1ccco1 | 0.0638%
57 | CCCC(=NC(C)CC)C1=C(O)CC(c2ccccc2)CC1=O (stereo not drawn) | -5.78%
